Assay results reported in the supplement of paper PMC4604168 (melanoma cell lines).
The other results are listed elsewhere or left out. Repeats are few or missing, and single values can be far off.

Assays:
Assay in all cases: cell count relative to DMSO control; melanoma cells; higher = more viable cells
Conditions in all cases: library dose: standard library concentration; 72 h
SkMel28 = tested on: SkMel28
SkMel2 = tested on: SkMel2
SkMel30 = tested on: SkMel30
SkMel5 = tested on: SkMel5
UACC257 = tested on: UACC257
UACC62 = tested on: UACC62
WM115 = tested on: WM115
WM1716 = tested on: WM1716
WM1745 = tested on: WM1745
WM3526 = tested on: WM3526
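Also: cells treated in 1,536-well plates, then fixed and DAPI-stained, with nuclei counted from automated high-throughput microscope images.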

Compound | cell count (SkMel28) [%] | cell count (SkMel2) [%] | cell count (SkMel30) [%] | cell count (SkMel5) [%] | cell count (UACC257) [%] | cell count (UACC62) [%] | cell count (WM115) [%] | cell count (WM1716) [%] | cell count (WM1745) [%] | cell count (WM3526) [%]
CC1(C)CCC(c2ccc(Cl)cc2)=C(CN2CCN(c3ccc(C(=O)NS(=O)(=O)c4ccc(N[C@H](CCN5CCOCC5)CSc5ccccc5)c(S(=O)(=O)C(F)(F)F)c4)cc3)CC2)C1 + Nc1cccc2c1CN(C1CCC(=O)NC1=O)C2=O [lenalidomide] (first compound 2 µM, partner dose 5 µM) | 91 | 73.7 | 59.7 | 90.6 | 40.4 | 67.2 | 102 | 66 | 4.48 | 86.5
CC1(C)CCC(c2ccc(Cl)cc2)=C(CN2CCN(c3ccc(C(=O)NS(=O)(=O)c4ccc(N[C@H](CCN5CCOCC5)CSc5ccccc5)c(S(=O)(=O)C(F)(F)F)c4)cc3)CC2)C1 + C[C@]1(O)C[C@@H](c2nc(-c3ccc4ccc(-c5ccccc5)nc4c3)c3c(N)nccn32)C1 [OSI906] (first compound 2 µM, partner dose 2 µM) | 82.7 | 56 | 61.8 | 55.5 | 49.7 | 45.4 | 109 | 66.9 | 2.2 | 75.4
CC1(C)CCC(c2ccc(Cl)cc2)=C(CN2CCN(c3ccc(C(=O)NS(=O)(=O)c4ccc(N[C@H](CCN5CCOCC5)CSc5ccccc5)c(S(=O)(=O)C(F)(F)F)c4)cc3)CC2)C1 + CC1(C)NC(=O)N(c2ccc([N+](=O)[O-])c(C(F)(F)F)c2)C1=O [nilutamide] (first compound 2 µM, partner dose 5 µM) | 59.7 | 73.4 | 62.1 | 72.4 | 44 | 82.6 | 74.8 | 50.7 | 3.4 | 72.5
Cc1ccc(Nc2nccc(N(C)c3ccc4c(C)n(C)nc4c3)n2)cc1S(N)(=O)=O [Pazopanib] + CN(C)S(=O)(=O)c1ccc2c(c1)/C(=C/c1cc3c([nH]1)CCCC3)C(=O)N2 [SU6656] (first compound 2 µM, partner dose 2 µM) | 58.5 | 98.5 | 77 | 74.5 | 70.4 | 63.4 | 56.3 | 66.2 | 50.4 | 60.6
CC1(C)CCC(c2ccc(Cl)cc2)=C(CN2CCN(c3ccc(C(=O)NS(=O)(=O)c4ccc(N[C@H](CCN5CCOCC5)CSc5ccccc5)c(S(=O)(=O)C(F)(F)F)c4)cc3)CC2)C1 + CN(c1ncccc1CNc1nc(Nc2ccc3c(c2)CC(=O)N3)ncc1C(F)(F)F)S(C)(=O)=O [PF562271] (first compound 2 µM, partner dose 0.4 µM) | 67.9 | 55.6 | 71.7 | 76.4 | 40.2 | 63.2 | 66.8 | 54.2 | 5.05 | 70.7
CC1(C)CCC(c2ccc(Cl)cc2)=C(CN2CCN(c3ccc(C(=O)NS(=O)(=O)c4ccc(N[C@H](CCN5CCOCC5)CSc5ccccc5)c(S(=O)(=O)C(F)(F)F)c4)cc3)CC2)C1 + C=CCn1c(=O)c2cnc(Nc3ccc(N4CCN(C)CC4)cc3)nc2n1-c1cccc(C(C)(C)O)n1 [MK1775] (first compound 2 µM, partner dose 0.1 µM) | 24.8 | 60.1 | 52.5 | 47.1 | 44.6 | 45.1 | 41.1 | 52.3 | 1.8 | 75.5
CC1(C)CCC(c2ccc(Cl)cc2)=C(CN2CCN(c3ccc(C(=O)NS(=O)(=O)c4ccc(N[C@H](CCN5CCOCC5)CSc5ccccc5)c(S(=O)(=O)C(F)(F)F)c4)cc3)CC2)C1 + NC(=O)Nc1cc(-c2cccc(F)c2)sc1C(=O)N[C@H]1CCCNC1 [AZD7762] (first compound 2 µM, partner dose 0.1 µM) | 21.1 | 74.6 | 69 | 83.9 | 30.7 | 57 | 48.8 | 29.3 | 3.1 | 65
Cc1ccc(Nc2nccc(N(C)c3ccc4c(C)n(C)nc4c3)n2)cc1S(N)(=O)=O [Pazopanib] + Cn1cnc2c(F)c(Nc3ccc(Br)cc3Cl)c(C(=O)NOCCO)cc21 [selumetinib] (first compound 2 µM, partner dose 0.075 µM) | 35 | 44.7 | 68 | 77.6 | 85.7 | 74.7 | 70.3 | 67.2 | 61.3 | 56.1
CC1(C)CCC(c2ccc(Cl)cc2)=C(CN2CCN(c3ccc(C(=O)NS(=O)(=O)c4ccc(N[C@H](CCN5CCOCC5)CSc5ccccc5)c(S(=O)(=O)C(F)(F)F)c4)cc3)CC2)C1 + Clc1ccc(Nc2nnc(Cc3ccncc3)c3ccccc23)cc1 [vatalanib] (first compound 2 µM, partner dose 10 µM) | 46 | 67.1 | 30.3 | 39.9 | 28.9 | 32.4 | 38.8 | 31.2 | 2.73 | 62.7
CC1(C)CCC(c2ccc(Cl)cc2)=C(CN2CCN(c3ccc(C(=O)NS(=O)(=O)c4ccc(N[C@H](CCN5CCOCC5)CSc5ccccc5)c(S(=O)(=O)C(F)(F)F)c4)cc3)CC2)C1 + Cn1cncc1[C@@](N)(c1ccc(Cl)cc1)c1ccc2c(c1)c(-c1cccc(Cl)c1)cc(=O)n2C [tipifarnib] (first compound 2 µM, partner dose 0.05 µM) | 70.2 | 51.5 | 52 | 62 | 40.2 | 69.1 | 63.2 | 34.1 | 3.31 | 87.6
Cc1ccc(Nc2nccc(N(C)c3ccc4c(C)n(C)nc4c3)n2)cc1S(N)(=O)=O [Pazopanib] + NCC(=O)Nc1ccc(-n2nc(C(F)(F)F)cc2-c2ccc3c(ccc4ccccc43)c2)cc1 [OSU03012] (first compound 2 µM, partner dose 5 µM) | 18 | 37 | 29.4 | 68.4 | 69 | 49.3 | 76.1 | 74.4 | 14.8 | 45.7
CC1(C)CCC(c2ccc(Cl)cc2)=C(CN2CCN(c3ccc(C(=O)NS(=O)(=O)c4ccc(N[C@H](CCN5CCOCC5)CSc5ccccc5)c(S(=O)(=O)C(F)(F)F)c4)cc3)CC2)C1 + CC(=O)c1c(C)c2cnc(Nc3ccc(N4CCNCC4)cn3)nc2n(C2CCCC2)c1=O [palbociclib] (first compound 2 µM, partner dose 0.2 µM) | 39.9 | 56.6 | 47.1 | 34.4 | 35 | 31.4 | 49.8 | 26.1 | 9.65 | 56
O=C(/C=C/c1cccnc1)NCCCCC1CCN(C(=O)c2ccccc2)CC1 + CC1(C)CCC(c2ccc(Cl)cc2)=C(CN2CCN(c3ccc(C(=O)NS(=O)(=O)c4ccc(N[C@H](CCN5CCOCC5)CSc5ccccc5)c(S(=O)(=O)C(F)(F)F)c4)cc3)CC2)C1 [ABT263] (first compound 0.05 µM, partner dose 2 µM) | 62.9 | 5.36 | 62.9 | 107 | 42.8 | 77.9 | 64.2 | 48.6 | 2.78 | 117
O=C(/C=C/c1cccnc1)NCCCCC1CCN(C(=O)c2ccccc2)CC1 + CS(=O)(=O)CCNCc1ccc(-c2ccc3ncnc(Nc4ccc(OCc5cccc(F)c5)c(Cl)c4)c3c2)o1 [lapatinib] (first compound 0.05 µM, partner dose 4 µM) | 70.8 | 14.9 | 80.3 | 62.7 | 103 | 63.3 | 75.4 | 60.2 | 81.3 | 66.2
Cc1ccc(Nc2nccc(N(C)c3ccc4c(C)n(C)nc4c3)n2)cc1S(N)(=O)=O [Pazopanib] + Cn1sc(=O)n(Cc2ccccc2)c1=O [TDZD-8] (first compound 2 µM, partner dose 2 µM) | 68.2 | 68.9 | 66.1 | 64.6 | 91.8 | 83.6 | 81.1 | 86.3 | 82.6 | 77.2
O=C(/C=C/c1cccnc1)NCCCCC1CCN(C(=O)c2ccccc2)CC1 + NC(=O)c1ccc(N(C(N)=O)c2c(F)cccc2F)nc1-c1ccc(F)cc1F [VX702] (first compound 0.05 µM, partner dose 2 µM) | 69.5 | 8.94 | 132 | 95.1 | 106 | 78.6 | 67.3 | 103 | 75.2 | 81.1
Cc1ccc(Nc2nccc(N(C)c3ccc4c(C)n(C)nc4c3)n2)cc1S(N)(=O)=O [Pazopanib] + CC(C)(C)c1cnc(CSc2cnc(NC(=O)C3CCNCC3)s2)o1 [SNS-032] (first compound 2 µM, partner dose 0.05 µM) | 63.8 | 70.2 | 71.3 | 55.1 | 81.2 | 51.4 | 82.7 | 75 | 83.5 | 94.2
CC1(C)CCC(c2ccc(Cl)cc2)=C(CN2CCN(c3ccc(C(=O)NS(=O)(=O)c4ccc(N[C@H](CCN5CCOCC5)CSc5ccccc5)c(S(=O)(=O)C(F)(F)F)c4)cc3)CC2)C1 + Cc1cc(N2CCOCC2)cc2[nH]c(-c3c(NC[C@@H](O)c4cccc(Cl)c4)cc[nH]c3=O)nc12 [BMS536924] (first compound 2 µM, partner dose 1 µM) | 79.6 | 60.8 | 58.1 | 75.5 | 55.9 | 67.8 | 63.2 | 62.9 | 9.65 | 70
O=C(/C=C/c1cccnc1)NCCCCC1CCN(C(=O)c2ccccc2)CC1 + CC1(C)NC(=O)N(c2ccc([N+](=O)[O-])c(C(F)(F)F)c2)C1=O [nilutamide] (first compound 0.05 µM, partner dose 5 µM) | 129 | 24.4 | 102 | 129 | 97 | 80.1 | 97.9 | 89.9 | 98.4 | 96.6
CC1(C)CCC(c2ccc(Cl)cc2)=C(CN2CCN(c3ccc(C(=O)NS(=O)(=O)c4ccc(N[C@H](CCN5CCOCC5)CSc5ccccc5)c(S(=O)(=O)C(F)(F)F)c4)cc3)CC2)C1 + OCc1c[nH]c2ccccc12 [Indole-3-carbinol] (first compound 2 µM, partner dose 4 µM) | 69 | 71.2 | 63.4 | 96 | 46.8 | 60.6 | 95.2 | 71.7 | 4.03 | 78.2
O=C(/C=C/c1cccnc1)NCCCCC1CCN(C(=O)c2ccccc2)CC1 + C#Cc1cccc(Nc2ncnc3cc(OCCOC)c(OCCOC)cc23)c1 [erlotinib] (first compound 0.05 µM, partner dose 4 µM) | 54.8 | 21.8 | 80.7 | 67.7 | 98 | 43.1 | 64.9 | 81 | 42.6 | 70.2
